{
  "source": "patent US6881740B1",
  "about": "“Pharmaceutical agents” (Monash University, priority 1998, dated 2005)",
  "system": "voltage-sensitive sodium channels (rat brain homogenates)",
  "details": "approximate IC50 from dose response curves, 30 minutes at 37° C., scorpion toxin present",
  "note": "pIC50: −log10 of the molar value.",
  "data": [
    {"smiles": "OC(Cc1cc(N2CCCC2)nc(N2CCCC2)n1)c1cccc(OC(F)(F)F)c1", "note": "(stereo not shown) [Compound 17, 6-[2-hydroxy-2-(3-trifluoromethoxyphenyl)ethyl]-2,4-di-N-pyrrolidinylpyrimidine]", "values": [
      {"measurement": "pIC50", "value": 6.38}
    ]}
  ]
}
